Experimental data: PubChem BioAssay AID504339 (National Center for Advancing Translational Sciences (NCATS), 2011)
The campaign covered roughly 390,000 compounds. About 17,000 (4.4%) were called active. The inconclusive results got no clear call from the source; some entries with a clear call stand among them for comparison. The call rests on the fitted dose curve; in most records, active means well fitted inhibition curve with a large enough effect; inconclusive means small, poorly fitted or top-dose-only effect; inactive means no such curve, though single readings can be large or run the other way. A potency beside an inconclusive call is a rough fit, not a confirmed value.

What follows are molecules tested against Lysine-specific demethylase 4A (Homo sapiens) (UniProt O75164) (assay: qHTS Assay for Inhibitors of JMJD2A-Tudor Domain). Conditions: AlphaScreen JMJD2A-Tudor / H3K4me3 peptide binding; activity change, negative = inhibition: at 114 µM (top of the series).
Further: nearly all actives have a fitted effect of over 50% in size.
On the % scale 0 is the no-effect control and ±100 the full control effect; potency means the concentration at half of the fitted maximal effect; tags describe the fitted curve by direction and shape.

Sequence of UniProt O75164 (O75164 whole entry, looked up, the tested form may be a part): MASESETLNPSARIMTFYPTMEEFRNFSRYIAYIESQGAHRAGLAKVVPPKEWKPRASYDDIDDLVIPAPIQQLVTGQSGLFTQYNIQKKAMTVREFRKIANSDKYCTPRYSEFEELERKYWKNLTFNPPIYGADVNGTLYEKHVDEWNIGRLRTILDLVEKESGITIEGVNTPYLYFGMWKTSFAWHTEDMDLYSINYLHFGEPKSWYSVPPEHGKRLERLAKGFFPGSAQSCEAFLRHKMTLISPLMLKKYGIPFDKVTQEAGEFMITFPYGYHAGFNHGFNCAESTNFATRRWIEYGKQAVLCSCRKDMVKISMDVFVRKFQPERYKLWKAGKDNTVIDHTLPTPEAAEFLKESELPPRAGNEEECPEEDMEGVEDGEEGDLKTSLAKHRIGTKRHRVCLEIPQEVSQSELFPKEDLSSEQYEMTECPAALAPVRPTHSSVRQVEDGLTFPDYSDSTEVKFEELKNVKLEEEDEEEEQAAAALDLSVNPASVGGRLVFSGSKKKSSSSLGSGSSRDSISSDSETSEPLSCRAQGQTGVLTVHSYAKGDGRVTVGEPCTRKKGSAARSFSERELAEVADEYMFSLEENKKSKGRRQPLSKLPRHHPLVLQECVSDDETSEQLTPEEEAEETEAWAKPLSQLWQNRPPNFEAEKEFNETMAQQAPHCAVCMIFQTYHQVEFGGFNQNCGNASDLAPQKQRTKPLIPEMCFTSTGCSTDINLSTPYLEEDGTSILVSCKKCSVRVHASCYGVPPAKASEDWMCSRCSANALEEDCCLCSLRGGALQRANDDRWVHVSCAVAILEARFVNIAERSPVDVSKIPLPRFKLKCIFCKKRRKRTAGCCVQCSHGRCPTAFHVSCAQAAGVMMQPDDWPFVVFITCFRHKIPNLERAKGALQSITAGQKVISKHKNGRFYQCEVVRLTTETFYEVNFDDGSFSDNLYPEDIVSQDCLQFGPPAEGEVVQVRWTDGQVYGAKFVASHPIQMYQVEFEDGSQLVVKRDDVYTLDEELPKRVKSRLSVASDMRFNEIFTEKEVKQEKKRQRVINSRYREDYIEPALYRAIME

Potency, inactive:
Cc1ccc(S(=O)(=O)c2nc(-c3ccco3)oc2SC(C)C)cc1

Potency, inconclusive:
C=CCOc1ccc(C2C(C(=O)c3ccc(C)o3)=C(O)C(=O)N2Cc2cccnc2)cc1 (stereo not given) 31.6 µM [inhibitor, partial curve]
S=c1[nH]nc(C2CC2c2ccc(Cl)cc2)n1-c1ccc(Cl)cc1 (stereo not given) 79.4 µM [inhibitor, partial curve]
CCCC(C)C(=O)Nc1nc(C)c(-c2csc(Nc3ccc(Cl)cc3)n2)s1 (stereo not given) 44.7 µM [inhibitor, partial curve]
COc1ccccc1-n1c(C)c(C(=O)O)c2cc(OC)c3ccccc3c21 44.7 µM [inhibitor, partial curve]
Cc1ccsc1-c1nc(CSCC(=O)N2CCN(c3ccccc3)CC2)c(C)o1 39.8 µM [inhibitor, full curve]
CC(Oc1cc2oc(=O)c3c(c2cc1Cl)CCCC3)C(=O)NCCN1CCOCC1 (stereo not given) 39.8 µM [inhibitor, single point]
O=C1CC(c2ccc(F)cc2)CC2=C1C(c1ccc([N+](=O)[O-])o1)Nc1ccccc1N2 (stereo not given) 28.2 µM [inhibitor, partial curve]
COc1ccc(N2CCN(C(=O)c3ccccc3NS(=O)(=O)c3ccc(C)cc3)CC2)cc1 56.2 µM [inhibitor, partial curve]
COc1ccc(-c2c3c(=O)n(C)c(=O)n(C)c3cn2NC(C)=O)cc1 79.4 µM [inhibitor, single point]
CCOC(=O)/C(=N/Nc1ccccc1)c1csc(Nc2ccccc2)n1 44.7 µM [inhibitor, partial curve]
CC1=Nc2cccc3cccc(c23)N1 50.1 µM [inhibitor, partial curve]
COc1cccc(C2C(C(=O)c3sc(C)nc3C)=C(O)C(=O)N2CCN2CCOCC2)c1 (stereo not given) 22.4 µM [inhibitor, single point]
COc1ccc(-c2csc(N3CCN(C(=O)c4ccco4)CC3)n2)cc1 44.7 µM [inhibitor, partial curve]
Cc1ccc(-c2cc(C(=O)NC3=NCCS3)c3ccccc3n2)cc1C 25.1 µM [inhibitor, single point]
Cc1ccc(NC(=O)CSc2nc3c(oc4ccccc43)c(=O)n2Cc2ccco2)cc1 28.2 µM [inhibitor, single point]
Cc1cn(-c2ccccc2)c(C)c1/C=N\Nc1nc(N2CCOCC2)nc(N2CCOCC2)n1 63.1 µM [inhibitor, partial curve]
COc1ccc(NC2CCCN(C(=O)c3ccc4[nH]c(C)c(C)c4c3)C2)cc1OC (stereo not given) 56.2 µM [inhibitor, partial curve, poor fit]
COc1ccc(-c2csc(NC(CO)c3nc4ccccc4n3Cc3ccc(C)cc3)n2)cc1 (stereo not given) 50.1 µM [inhibitor, partial curve]
CCN(CC)c1ccc(N)cc1S(=O)(=O)Nc1ccccc1OC 56.2 µM [inhibitor, partial curve, poor fit]
CCOc1ccc2[nH]c3c(N4CCN(c5ccccn5)CC4)ncnc3c2c1 50.1 µM [inhibitor, partial curve]
c1ccc(-c2nnc(SCc3nc4ccccc4[nH]3)n2Cc2ccco2)nc1 56.2 µM [inhibitor, partial curve]
COc1ccc(Nc2nc(N)c([N+](=O)[O-])c(NC3CCCCC3)n2)cc1 63.1 µM [inhibitor, partial curve]
Cc1n[nH]c(=S)n1Cc1ccccc1 5.01 µM [inhibitor, single point]
COC(=O)C1=C(C)N(CC2CC2)C(=NCc2cccc(Cl)c2)N[C@H]1c1ccccc1 39.8 µM [inhibitor, single point]
CC(=O)c1ccccc1Oc1nc(CN2CCOCC2)nc2scc(-c3cccs3)c12 89.1 µM [inhibitor, partial curve]
COc1ccc(C)c2sc(N(CCN(C)C)C(=O)/C=C/c3cccs3)nc12 50.1 µM [inhibitor, partial curve]
Cc1ccc(/C=C2\SC(=S)N(CCCC(=O)Nc3ccccc3C(=O)O)C2=O)cc1 44.7 µM [inhibitor, partial curve]
O=C(c1ccc(-c2ccc([N+](=O)[O-])cc2)o1)N1CCCCC1 56.2 µM [inhibitor, partial curve]
COc1ccc(/C=C/C(=O)Nc2ccc3nc(N4CCC(C)CC4)cc(C)c3c2)cc1OC 56.2 µM [inhibitor, partial curve]
Cc1c(C)n(Cc2ccc(F)cc2)c2ccc(C(=O)N3CCN(c4ccc(Cl)cc4)CC3)cc12 12.6 µM [inhibitor, full curve]
C=C1N(C)c2cc([N+](=O)[O-])c(N)cc2C1(C)C 25.1 µM [inhibitor, single point]
c1ccc(Nc2ccccn2)nc1 79.4 µM [inhibitor, partial curve]
COc1ccc(CCNC(=O)Cc2c(C)c3c(cc(C)c4c(C)c(C)oc43)oc2=O)cc1OC 70.8 µM [inhibitor, single point]
N#CCCN(Cc1cccnc1)C(=S)NC(=O)c1ccccc1 6.31 µM [inhibitor, partial curve]
COc1ccccc1N=Cc1c(C)[nH]n(-c2ccc(C)cc2C)c1=O 35.5 µM [inhibitor, full curve]
O=C(Nc1c(F)cc(F)cc1Br)c1cc(S(=O)(=O)N2CCN(c3ccccn3)CC2)ccc1F 100 µM [inhibitor, partial curve]
Cc1cc(/C=N\NC(=O)CC(=O)NC2CCCCC2)c(C)n1-c1ccc(Cl)c(Cl)c1 39.8 µM [inhibitor, full curve]
CN(C)c1ccc(CNC(=O)c2cc3ccccn3n2)cc1 56.2 µM [inhibitor, partial curve]
C=CCn1c(SC2CCOC2=O)nc2scc(C3CC3)c2c1=O (stereo not given) 89.1 µM [inhibitor, single point]

Potency, active:
COc1ccc(-c2cc(=O)oc3cc(OCC(=O)Nc4ccccn4)ccc23)cc1 17.8 µM
O=[N+]([O-])c1cc(Cl)cc(/C=N\Nc2ccccn2)c1O 10 µM
Nc1nc(NCc2ccco2)nc(N2CCCCCC2)c1[N+](=O)[O-] 56.2 µM
CC[n+]1c(/C=C2\C=C(C)CC(C)(C)C2)sc2ccccc21 39.8 µM
CCOCCn1c(SC)nc2c1c(=O)[nH]c(=O)n2C 89.1 µM
Nn1c(Cc2ccccc2F)n[nH]c1=S 3.16 µM
CCOC(=O)c1nc(C)[nH]c1C(=O)OCC 17.8 µM
O=C(O)c1cccc(Nc2ncnc3ccccc23)c1 79.4 µM
COC(=O)C1=C(C(=O)OC)SC(=C2C(=S)C(C)(C)N(C(=O)C3CC3)c3ccccc32)S1 6.31 µM
O=c1[nH]n(-c2ccc([N+](=O)[O-])cc2)c(=O)c2ccccc12 39.8 µM
COc1cc(C2C(C(C)=O)=C(O)C(=O)N2CCc2c[nH]c3ccccc23)ccc1O (stereo not given) 100 µM
CCOC(=O)c1c(-c2ccc(F)cc2)csc1NC(=O)CCN1CCOCC1 1.78 µM

Activity change, negative = inhibition, inactive:
CCCNC(=O)CC(NS(=O)(=O)c1ccc(NC(C)=O)cc1)C(C)C (stereo not given) 3.5%
CC(=O)NCC(=O)OCC(=O)c1ccccc1 -11%
CC(=O)C1=C(O)C(=O)N(Cc2ccccc2)C1c1cccs1 (stereo not given) -21.2%
COc1cc(CN2CCCC(C)C2)ccc1OCc1ccccc1 (stereo not given) -14.3%
CCC1(c2ccc(F)cc2)NC(=O)N(CC(=O)Nc2ccc(C)c(S(=O)(=O)N3CCOCC3)c2)C1=O (stereo not given) -24.1%
COc1cccc(C2C(C(=O)Nc3ccccc3)=C(C)Nc3nnnn32)c1OC (stereo not given) -14.3%
COCCNC(=O)c1cc(-c2ccccc2C)nn1CC1CC(c2cccnc2)=NO1 (stereo not given) -14.5%
CC(C)Oc1ccc(CNC(=O)c2cnc3sc(N4CCCCC4)nn3c2=O)cc1 -10.7%
Cn1cnc(S(=O)(=O)N2CCC(C(=O)N3CCN(c4ccc(Cl)cc4)CC3)CC2)c1 -7.28%
CC(=O)Nc1ccc(-n2c(CCC(=O)O)ccc2-c2ccc(C)cc2)cc1 -31.5%
CCc1ccc(Sc2cc(C(=O)NCCCOC(C)C)c3ccccc3n2)cc1 15.6%
Cc1cc(C)cc(OCC(=O)Nc2ccc(Cl)c(-c3nc4ncccc4o3)c2)c1 -18.2%
O=c1/c(=C\c2cccc(O)c2)sc2nc(-c3ccccc3)c(-c3ccccc3)n12 -27.2%
C=CCOC(=O)/C(=C/c1ccco1)NC(=O)/C=C/c1ccccc1 -16.2%
Cc1ccc(NC(=O)Cn2c(=O)n(-c3ccc(C)cc3)c(=O)c3ccc(C(=O)NCc4ccccc4Cl)cc32)cc1 5.67%
Cc1cc(C)cc(NC(=O)CSc2nnc(COc3ccccc3Cl)o2)c1 10.7%
CN(C)CCN1C(=O)C(=O)/C(=C(/O)c2ccc(S(=O)(=O)N3CCOCC3)cc2)C1c1ccc(F)cc1 (stereo not given) -6.9%

Activity change, negative = inhibition, inconclusive:
COc1cc(/C=C2\SC(=S)N(CC(=O)O)C2=O)ccc1OS(=O)(=O)c1ccc(C)cc1 -41.4% [inhibitor]
